This note sets out measurements from publication PMC12820563.

This is one part of the list. The list includes weakly bound sequences.

This assay concerns the target T1, MBP-FoxP3dN (UniProt Q99JB6).
T1 sequence: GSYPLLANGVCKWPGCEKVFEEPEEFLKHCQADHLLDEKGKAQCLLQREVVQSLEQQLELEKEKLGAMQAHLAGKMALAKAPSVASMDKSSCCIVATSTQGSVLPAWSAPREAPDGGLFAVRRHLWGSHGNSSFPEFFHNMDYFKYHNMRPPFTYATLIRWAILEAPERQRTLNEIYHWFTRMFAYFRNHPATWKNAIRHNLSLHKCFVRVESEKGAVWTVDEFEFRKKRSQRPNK
The assay can be described thus: PD-seq (MBP pull-down with sequencing). Conditions: 20 mM Tris-HCl pH 7.5, 100 mM NaCl, 1.5 mM MgCl2, 0.4 uM protein, 0.1 uM dsDNA library, 30 min, room temperature, amylose pull-down; high values mean tight binding; double strand, one strand shown.
With “GATGATTGTTCTCCCAGCTGATGAATTTGTGTTGTCGAGTAAACAAATTTTCCTAATCTTTCTGTTCAAGCGCCATCTAC”, the binding signal (RPM ratio (pull-down/input)) came to 6.27.
In the case of “GATGATTGTTCTCCCAGCTGATGAATTCTCAGACTCGAGTAAACAAATTTTCCTAATCTTTCTGTTCAAGCGCCATCTAC” it was 0.193; in that of “GATGATTGTTCTCCCAGCTGATGAATTAAATCACTCGAGTAAACAAATTTTCCTAATCTTTCTGTTCAAGCGCCATCTAC”, 0.508.
In the case of “GATGATTGTTCTCCCAGCTGATGAATTGATACGATCGAGTAAACAAATTTTCCTAATCTTTCTGTTCAAGCGCCATCTAC”, the binding signal (RPM ratio (pull-down/input)) is 0.981.
For “GATGATTGTTCTCCCAGCTGATGAATTATTGCCTTCGAGTAAACAAATTTTCCTAATCTTTCTGTTCAAGCGCCATCTAC”, the binding signal (RPM ratio (pull-down/input)) is 3.08.
The result for “GATGATTGTTCTCCCAGCTGATGAATTGGCGCCCTCGAGTAAACAAATTTTCCTAATCTTTCTGTTCAAGCGCCATCTAC” reads 0.628; that for “GATGATTGTTCTCCCAGCTGATGAATTGATGGTGTCGAGTAAACAAATTTTCCTAATCTTTCTGTTCAAGCGCCATCTAC”, 1.19; that for “GATGATTGTTCTCCCAGCTGATGAATTACTTCCTTCGAGTAAACAAATTTTCCTAATCTTTCTGTTCAAGCGCCATCTAC”, 0.261.
Turning to “GATGATTGTTCTCCCAGCTGATGAATTCTGCTCATCGAGTAAACAAATTTTCCTAATCTTTCTGTTCAAGCGCCATCTAC”, the binding signal (RPM ratio (pull-down/input)) was found to be 0.455.
The result for “GATGATTGTTCTCCCAGCTGATGAATTTCTGCGCTCGAGTAAACAAATTTTCCTAATCTTTCTGTTCAAGCGCCATCTAC” reads 0.46; that for “GATGATTGTTCTCCCAGCTGATGAATTATCCAATTCGAGTAAACAAATTTTCCTAATCTTTCTGTTCAAGCGCCATCTAC”, 0.269; that for “GATGATTGTTCTCCCAGCTGATGAATTCCATTAATCGAGTAAACAAATTTTCCTAATCTTTCTGTTCAAGCGCCATCTAC”, 0.25.
“GATGATTGTTCTCCCAGCTGATGAATTGGCGAAATCGAGTAAACAAATTTTCCTAATCTTTCTGTTCAAGCGCCATCTAC”: the binding signal (RPM ratio (pull-down/input)) is 0.393.
Take “GATGATTGTTCTCCCAGCTGATGAATTTACGACTTCGAGTAAACAAATTTTCCTAATCTTTCTGTTCAAGCGCCATCTAC”: the binding signal (RPM ratio (pull-down/input)) is 0.711.
On to “GATGATTGTTCTCCCAGCTGATGAATTAGCTTTGTCGAGTAAACAAATTTTCCTAATCTTTCTGTTCAAGCGCCATCTAC”, for which the binding signal (RPM ratio (pull-down/input)) was determined as 2.56.
For the sequence “GATGATTGTTCTCCCAGCTGATGAATTAGATGAGTCGAGTAAACAAATTTTCCTAATCTTTCTGTTCAAGCGCCATCTAC”, the binding signal (RPM ratio (pull-down/input)) came out at 0.504.
Regarding “GATGATTGTTCTCCCAGCTGATGAATTAGCAACGTCGAGTAAACAAATTTTCCTAATCTTTCTGTTCAAGCGCCATCTAC”, the binding signal (RPM ratio (pull-down/input)) was 1.13.
For “GATGATTGTTCTCCCAGCTGATGAATTGCGGAGATCGAGTAAACAAATTTTCCTAATCTTTCTGTTCAAGCGCCATCTAC”, the binding signal (RPM ratio (pull-down/input)) was 0.553.
As for “GATGATTGTTCTCCCAGCTGATGAATTACTTGTGTCGAGTAAACAAATTTTCCTAATCTTTCTGTTCAAGCGCCATCTAC”, the binding signal (RPM ratio (pull-down/input)) amounted to 0.98.
With “GATGATTGTTCTCCCAGCTGATGAATTTTTCGACTCGAGTAAACAAATTTTCCTAATCTTTCTGTTCAAGCGCCATCTAC”, the binding signal (RPM ratio (pull-down/input)) amounted to 0.265.
With “GATGATTGTTCTCCCAGCTGATGAATTCCACGCATCGAGTAAACAAATTTTCCTAATCTTTCTGTTCAAGCGCCATCTAC”, the binding signal (RPM ratio (pull-down/input)) was determined as 0.972.
In the case of “GATGATTGTTCTCCCAGCTGATGAATTGTTCCCATCGAGTAAACAAATTTTCCTAATCTTTCTGTTCAAGCGCCATCTAC” it was 0.478; in that of “GATGATTGTTCTCCCAGCTGATGAATTTCTCTACTCGAGTAAACAAATTTTCCTAATCTTTCTGTTCAAGCGCCATCTAC”, 0.313.
Consider “GATGATTGTTCTCCCAGCTGATGAATTTGAACATTCGAGTAAACAAATTTTCCTAATCTTTCTGTTCAAGCGCCATCTAC”, for which the binding signal (RPM ratio (pull-down/input)) was found to be 0.495.
The result for “GATGATTGTTCTCCCAGCTGATGAATTGTTCCTATCGAGTAAACAAATTTTCCTAATCTTTCTGTTCAAGCGCCATCTAC” reads 0.556; that for “GATGATTGTTCTCCCAGCTGATGAATTAACGTATTCGAGTAAACAAATTTTCCTAATCTTTCTGTTCAAGCGCCATCTAC”, 1.22; that for “GATGATTGTTCTCCCAGCTGATGAATTAACAACCTCGAGTAAACAAATTTTCCTAATCTTTCTGTTCAAGCGCCATCTAC”, 0.578.
With “GATGATTGTTCTCCCAGCTGATGAATTATCAGCTTCGAGTAAACAAATTTTCCTAATCTTTCTGTTCAAGCGCCATCTAC”, the binding signal (RPM ratio (pull-down/input)) was determined as 0.351.
As to “GATGATTGTTCTCCCAGCTGATGAATTATAACCGTCGAGTAAACAAATTTTCCTAATCTTTCTGTTCAAGCGCCATCTAC”, the binding signal (RPM ratio (pull-down/input)) stood at 0.364.
For “GATGATTGTTCTCCCAGCTGATGAATTTCGGTTATCGAGTAAACAAATTTTCCTAATCTTTCTGTTCAAGCGCCATCTAC”, the binding signal (RPM ratio (pull-down/input)) amounted to 0.994.
Take “GATGATTGTTCTCCCAGCTGATGAATTATGAAGGTCGAGTAAACAAATTTTCCTAATCTTTCTGTTCAAGCGCCATCTAC”: the binding signal (RPM ratio (pull-down/input)) came out at 0.269.
The result for “GATGATTGTTCTCCCAGCTGATGAATTGCTACGCTCGAGTAAACAAATTTTCCTAATCTTTCTGTTCAAGCGCCATCTAC” reads 0.571.
